MIC of invasive clinical C. tropicalis isolates, CLSI broth microdilution (fluconazole 0.12-256 mg/L, up to 1,024 for the azole-resistant cluster and its neighbour group; other ranges not stated); higher = less susceptible. Call: susceptible or wild type [S] / resistant or non-wild type [R] by CLSI breakpoints or cut-offs; intermediate and dose-dependent carry no call. '<=' and '>=' at the end values are inferred; the source marks only some of them. Isolates are numbered anew.

The source of these data is the supplement of paper PMC10724272.

Common to all, as to assay: CLSI broth microdilution.
A general note: In broth dilution the organism is exposed to a series of concentrations in liquid medium.

Compound in one assay: CCC(C)n1ncn(-c2ccc(N3CCN(c4ccc(OCC5COC(Cn6cncn6)(c6ccc(Cl)cc6Cl)O5)cc4)CC3)cc2)c1=O [itraconazole]
Compound in the next assay: CCCCCOc1ccc(-c2cc(-c3ccc(C(=O)N[C@H]4C[C@@H](O)[C@@H](O)NC(=O)[C@@H]5[C@@H](O)[C@@H](C)CN5C(=O)[C@H]([C@H](O)CC(N)=O)NC(=O)[C@H]([C@H](O)[C@@H](O)c5ccc(O)c(OS(=O)(=O)O)c5)NC(=O)[C@@H]5C[C@@H](O)CN5C(=O)[C@H]([C@@H](C)O)NC4=O)cc3)no2)cc1 [micafungin]
Compound in the next assay: CCCCCOc1ccc(-c2ccc(-c3ccc(C(=O)N[C@H]4C[C@@H](O)[C@@H](O)NC(=O)[C@@H]5[C@@H](O)[C@@H](C)CN5C(=O)[C@H]([C@@H](C)O)NC(=O)[C@H]([C@H](O)[C@@H](O)c5ccc(O)cc5)NC(=O)[C@@H]5C[C@@H](O)CN5C(=O)[C@H]([C@@H](C)O)NC4=O)cc3)cc2)cc1 [anidulafungin]
Compound in another assay: CC[C@@H]([C@H](C)O)n1ncn(-c2ccc(N3CCN(c4ccc(OC[C@@H]5CO[C@@](Cn6cncn6)(c6ccc(F)cc6F)C5)cc4)CC3)cc2)c1=O [posaconazole]
Compound in a further assay: CC[C@H](C)C[C@H](C)CCCCCCCCC(=O)N[C@H]1C[C@@H](O)[C@@H](NCCN)NC(=O)[C@@H]2[C@@H](O)CCN2C(=O)[C@H]([C@H](O)CCN)NC(=O)[C@H]([C@H](O)[C@@H](O)c2ccc(O)cc2)NC(=O)[C@@H]2C[C@@H](O)CN2C(=O)[C@H]([C@@H](C)O)NC1=O [caspofungin]
Compound in the next assay: C[C@@H](c1ncncc1F)[C@](O)(Cn1cncn1)c1ccc(F)cc1F [voriconazole]
Compound in a further assay: C[C@@H]1[C@H](O)[C@@H](C)/C=C/C=C/C=C/C=C/C=C/C=C/C=C/[C@H](O[C@@H]2O[C@H](C)[C@@H](O)[C@H](N)[C@@H]2O)C[C@@H]2O[C@](O)(C[C@@H](O)C[C@@H](O)[C@H](O)CC[C@@H](O)C[C@@H](O)CC(=O)O[C@H]1C)C[C@H](O)[C@H]2C(=O)O [amphotericin B]
Compound in a further assay: Nc1[nH]c(=O)ncc1F [flucytosine]
Compound in another assay: OC(Cn1cncn1)(Cn1cncn1)c1ccc(F)cc1F [fluconazole]

For the test system “Candida tropicalis isolate 273 (ERG11 copies: 2, Erg11p: no key change)”, the MIC (commonly the lowest concentration that inhibits growth of the organism) in the assay with itraconazole came to 0.06 mg/L [S]; with micafungin it was 0.03 mg/L [S]; in the assay with anidulafungin it was 0.06 mg/L [S]; in the assay with posaconazole, 0.06 mg/L [S]; with caspofungin it was 0.03 mg/L [S]; in the assay with voriconazole, 0.03 mg/L [S]. Further, the MIC in the assay with amphotericin B was 1 mg/L [S]; with flucytosine, ≤ 0.06 mg/L [S]; with fluconazole, 0.5 mg/L [S].

As to “Candida tropicalis isolate 78 (ERG11 copies: 8, Erg11p: Y132F, S154F (heterozygous))”, the MIC with itraconazole was 1 mg/L [R]; with micafungin it was 0.03 mg/L [S]; with anidulafungin, 0.03 mg/L [S]; with posaconazole, 1 mg/L [R]; with caspofungin, 0.03 mg/L [S]; with voriconazole, ≥ 8 mg/L [R]. Moreover, the MIC was 1 mg/L [S] in the assay with amphotericin B, ≤ 0.06 mg/L [S] with flucytosine and 256 mg/L [R] in the assay with fluconazole.

Turning to “Candida tropicalis isolate 133 (ERG11 copies: 2, Erg11p: no key change)”, the MIC with itraconazole amounted to 0.06 mg/L [S]; with micafungin, 0.03 mg/L [S]; in the assay with anidulafungin, 0.06 mg/L [S]; with posaconazole it was 0.06 mg/L [S]; with caspofungin, 0.03 mg/L [S]; in the assay with voriconazole it was 0.06 mg/L [S]. Besides, the MIC with amphotericin B was 1 mg/L [S]; in the assay with flucytosine it was ≤ 0.06 mg/L [S]; with fluconazole it was 1 mg/L [S].

For the test system “Candida tropicalis isolate 367 (ERG11 copies: 2, Erg11p: no key change)”, the MIC in the assay with itraconazole came out at 0.12 mg/L [S]; with micafungin, 0.03 mg/L [S]; with anidulafungin, 0.12 mg/L [S]; in the assay with posaconazole it was 0.12 mg/L [S]; in the assay with caspofungin it was 0.06 mg/L [S]; in the assay with voriconazole, 0.12 mg/L [S]. Also, the figures for the MIC with amphotericin B, with flucytosine and in the assay with fluconazole were 0.5 mg/L [S], 0.12 mg/L [S] and 1 mg/L [S], respectively.

On to “Candida tropicalis isolate 161 (ERG11 copies: 2, Erg11p: no key change)”, for which the MIC in the assay with itraconazole was determined as 0.25 mg/L [S]; in the assay with micafungin it was 0.06 mg/L [S]; with anidulafungin, 0.12 mg/L [S]; with posaconazole, 0.12 mg/L [S]; in the assay with caspofungin, 0.12 mg/L [S]; with voriconazole, 0.12 mg/L [S]. Moreover, the figures for the MIC in the assay with amphotericin B, in the assay with flucytosine and with fluconazole were 0.5 mg/L [S], ≤ 0.06 mg/L [S] and 2 mg/L [S], respectively.

As to “Candida tropicalis isolate 402 (ERG11 copies: 2, Erg11p: no key change)”, the MIC came out at 0.12 mg/L [S] in the assay with itraconazole; 0.06 mg/L [S] in the assay with micafungin; 0.12 mg/L [S] in the assay with anidulafungin; 0.12 mg/L [S] with posaconazole; 0.06 mg/L [S] with caspofungin; 0.06 mg/L [S] with voriconazole. Moreover, the MIC with amphotericin B is 1 mg/L [S]; with flucytosine, ≤ 0.06 mg/L [S]; in the assay with fluconazole, 1 mg/L [S].

As for “Candida tropicalis isolate 175 (ERG11 copies: 2, Erg11p: Y257H (homozygous))”, the MIC worked out at 0.25 mg/L [S] with itraconazole; 0.015 mg/L [S] with micafungin; 0.03 mg/L [S] with anidulafungin; 0.25 mg/L [S] with posaconazole; 0.03 mg/L [S] with caspofungin; 0.5 µg/mL with voriconazole. The MIC is 0.5 mg/L [S] with amphotericin B, ≤ 0.06 mg/L [S] in the assay with flucytosine and 8 mg/L [R] with fluconazole.

“Candida tropicalis isolate 426 (ERG11 copies: 2, Erg11p: no key change)”: the MIC with itraconazole is 0.25 mg/L [S]; with micafungin, 0.03 mg/L [S]; with anidulafungin, 0.03 mg/L [S]; with posaconazole, 0.25 mg/L [S]; with caspofungin, 0.03 mg/L [S]; with voriconazole it was 0.12 mg/L [S]. Also, the MIC in the assay with amphotericin B was 1 mg/L [S]; with flucytosine it was ≤ 0.06 mg/L [S]; with fluconazole it was 2 mg/L [S].

As to “Candida tropicalis isolate 29 (ERG11 copies: 2, Erg11p: no key change)”, the MIC with itraconazole came to 0.5 mg/L [S]; in the assay with micafungin it was 0.015 mg/L [S]; with anidulafungin it was 0.03 mg/L [S]; with posaconazole, 0.5 mg/L [R]; in the assay with caspofungin, 0.03 mg/L [S]; with voriconazole, 0.25 µg/mL. In addition, the values for the MIC in the assay with amphotericin B, with flucytosine and in the assay with fluconazole were 1 mg/L [S], ≤ 0.06 mg/L [S] and 2 mg/L [S], respectively.

For “Candida tropicalis isolate 289 (ERG11 copies: 2, Erg11p: no key change)”, the MIC with itraconazole was 0.25 mg/L [S]; with micafungin it was 0.03 mg/L [S]; in the assay with anidulafungin, 0.12 mg/L [S]; with posaconazole it was 0.25 mg/L [S]; with caspofungin it was 0.06 mg/L [S]; in the assay with voriconazole it was 0.25 µg/mL. Also, the MIC with amphotericin B is 0.25 mg/L [S]; in the assay with flucytosine, ≤ 0.06 mg/L [S]; in the assay with fluconazole, 2 mg/L [S].

For the test system “Candida tropicalis isolate 363 (ERG11 copies: 2, Erg11p: no key change)”, the MIC with itraconazole was 0.5 mg/L [S]; with micafungin, 0.06 mg/L [S]; in the assay with anidulafungin, 0.12 mg/L [S]; with posaconazole, 0.5 mg/L [R]; in the assay with caspofungin it was 0.06 mg/L [S]; with voriconazole, 0.25 µg/mL. The MIC in the assay with amphotericin B was 1 mg/L [S]; in the assay with flucytosine, ≤ 0.06 mg/L [S]; in the assay with fluconazole, 4 µg/mL.

Turning to “Candida tropicalis isolate 108 (ERG11 copies: 2, Erg11p: Y132F, S154F (heterozygous))”, the MIC with itraconazole turned out to be 0.25 mg/L [S]; with micafungin, 0.06 mg/L [S]; in the assay with anidulafungin it was 0.12 mg/L [S]; in the assay with posaconazole, 0.25 mg/L [S]; with caspofungin, 0.06 mg/L [S]; with voriconazole it was 1 mg/L [R]. The figures for the MIC with amphotericin B, in the assay with flucytosine and with fluconazole were 0.5 mg/L [S], ≤ 0.06 mg/L [S] and 16 mg/L [R], respectively.

With “Candida tropicalis isolate 204 (ERG11 copies: 2, Erg11p: Y132F, S154F (homozygous))”, the MIC with itraconazole worked out at 0.5 mg/L [S]; with micafungin, 0.06 mg/L [S]; with anidulafungin, 0.12 mg/L [S]; in the assay with posaconazole, 0.5 mg/L [R]; with caspofungin, 0.03 mg/L [S]; in the assay with voriconazole it was 4 mg/L [R]. Besides, the MIC in the assay with amphotericin B was 1 mg/L [S]; with flucytosine, ≤ 0.06 mg/L [S]; with fluconazole, 64 mg/L [R].

As for “Candida tropicalis isolate 409 (ERG11 copies: 2, Erg11p: Y132F, S154F (homozygous))”, the MIC with itraconazole was 0.5 mg/L [S]; with micafungin, 0.03 mg/L [S]; with anidulafungin, ≤ 0.015 mg/L [S]; with posaconazole, 0.5 mg/L [R]; with caspofungin, 0.03 mg/L [S]; with voriconazole, 4 mg/L [R]. The MIC is 0.25 mg/L [S] with amphotericin B, ≤ 0.06 mg/L [S] with flucytosine and 128 mg/L [R] in the assay with fluconazole.

For “Candida tropicalis isolate 110 (ERG11 copies: 2, Erg11p: no key change)”, the MIC was 0.5 mg/L [S] in the assay with itraconazole; 0.03 mg/L [S] with micafungin; 0.03 mg/L [S] with anidulafungin; 0.5 mg/L [R] with posaconazole; 0.03 mg/L [S] with caspofungin; 0.25 µg/mL with voriconazole. In addition, the values for the MIC in the assay with amphotericin B, with flucytosine and in the assay with fluconazole were 1 mg/L [S], ≤ 0.06 mg/L [S] and 2 mg/L [S], respectively.

For the test system “Candida tropicalis isolate 290 (ERG11 copies: 2, Erg11p: no key change)”, the MIC with itraconazole amounted to 0.5 mg/L [S]; with micafungin, 0.03 mg/L [S]; in the assay with anidulafungin, 0.03 mg/L [S]; with posaconazole, 0.5 mg/L [R]; in the assay with caspofungin it was 0.03 mg/L [S]; in the assay with voriconazole it was 0.5 µg/mL. The results for the MIC with amphotericin B, in the assay with flucytosine and in the assay with fluconazole were 1 mg/L [S], ≤ 0.06 mg/L [S] and 2 mg/L [S], respectively.
